# Measurements from PubChem BioAssay AID651711 (Broad Institute, 2012).
# Among all 350,000 compounds or so, about 180 (0.051%) were called active. The inconclusive results got no clear call from the source; some entries with a clear call stand among them for comparison.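 Rule for the calls: active = mean replicate inhibition above about 25%, with every replicate also reaching it (limit read from the data, passing the limit was not always enough); inconclusive = only one of those two criteria met; inactive = neither criterion met.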
# Target: Protein disulfide-isomerase A6 (Homo sapiens) (UniProt Q15084)
# UniProt Q15084, sequence (Q15084 whole entry, looked up): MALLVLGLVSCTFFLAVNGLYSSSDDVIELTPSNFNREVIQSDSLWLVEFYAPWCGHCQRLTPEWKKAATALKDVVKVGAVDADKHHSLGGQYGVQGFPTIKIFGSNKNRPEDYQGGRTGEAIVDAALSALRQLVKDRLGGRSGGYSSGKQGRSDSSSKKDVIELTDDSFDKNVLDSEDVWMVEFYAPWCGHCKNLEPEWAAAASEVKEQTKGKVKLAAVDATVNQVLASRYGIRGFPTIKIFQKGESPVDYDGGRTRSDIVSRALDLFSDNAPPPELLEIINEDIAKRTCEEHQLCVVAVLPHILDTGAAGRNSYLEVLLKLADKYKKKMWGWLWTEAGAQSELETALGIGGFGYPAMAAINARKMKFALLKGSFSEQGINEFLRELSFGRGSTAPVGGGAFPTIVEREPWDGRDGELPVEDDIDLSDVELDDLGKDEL
# Assay: inhibitors of ERp5-driven insulin aggregation, primary screen, biochemical, turbidity, absorbance 650 nm, single point (AID 651711)
# Settings: 90 min, at 9.99 µM, hits give high values
row,SMILES,inhibition
1,CC(NS(=O)(=O)c1ccc(Br)cc1)C(=O)NCc1ccco1 (centres undefined),inconclusive: 52.1%
2,CN(C)S(=O)(=O)Nc1cc(F)cc(F)c1,inconclusive: 27.8%
3,O=C1CCc2cc(S(=O)(=O)NCc3ccccc3Cl)cc3c2N1CC3,active: 29.3%
4,CCOc1cccc(/C=C2/NC(=O)N(CC(=O)Nc3cccc(C)c3)C2=O)c1O,inconclusive: 39%
5,COc1ccc(CN(C)C[C@@H]2Oc3ccc(NC(=O)C4CC4)cc3C(=O)N([C@@H](C)CO)C[C@H]2C)cc1,inconclusive: 55.3%
6,O=C(COC(=O)c1cccc(NS(=O)(=O)c2ccc(F)c(F)c2)c1)NC(=O)NC1CCCC1,inconclusive: 40.9%
7,CC(=O)c1c(C)[nH]c(C(=O)OCC(=O)Nc2ccc(Cl)c(S(=O)(=O)N(C)C)c2)c1C,inconclusive: 37.8%
8,CC(=O)c1cc(-c2ccccc2)n(CC(=O)Nc2ccc(C)c(C)c2)c1C,inconclusive: 43%
9,C[C@H](CO)N1C[C@H](C)[C@H](CN(C)S(=O)(=O)c2ccc(Cl)cc2)OCCCC[C@H](C)Oc2ccc(NC(=O)NC3CCCCC3)cc2C1=O,inactive: -4.52%
10,CC1CC(C)CN(S(=O)(=O)c2ccc3c(c2)n(C)c(=O)c(=O)n3C)C1 (centres undefined),inconclusive: 38.9%
11,CCOC(=O)C1(Cc2cccc(OC)c2)CCN(CC=C(C)C)CC1,inconclusive: 33.4%
12,N#CC(c1nc2ccccc2nc1OCCO)S(=O)(=O)c1ccccc1 (centres undefined),inconclusive: 25.3%
13,CC(C)C(NC(=O)c1ccc(F)cc1)C(=O)N1CCOCC1 (centres undefined),active: 27.4%
14,CC(CC(=O)c1cccs1)CC(=O)c1cccs1,inconclusive: 49.9%
15,C[C@H](CO)N1C[C@H](C)[C@H](CN(C)S(=O)(=O)c2ccc(Cl)cc2)OCCCC[C@H](C)Oc2ccc(NS(=O)(=O)c3cn(C)cn3)cc2C1=O,inactive: 2.11%
16,CCCn1nc2cc(C(=O)NCc3ccc4c(c3)OCO4)ccc2c1OCC,inconclusive: 46.5%
17,O=C(Nc1cccc(S(=O)(=O)N2CCCC2)c1)c1ccc2c(c1)OCO2,inactive: 3.57%
18,COc1ccc(-c2cc(C(=O)NCc3cn(C)nc3C)c3ccccc3n2)cc1OC,inconclusive: 39.2%
19,CCCNC(=O)C[C@@H]1C[C@@H]2c3cc(NS(C)(=O)=O)ccc3O[C@@H]2[C@H](CO)O1,active: 32.3%
20,COc1cc2c(cc1NC(=O)COC(=O)C(CCSC)NC(=O)c1ccccc1Cl)oc1ccccc12 (centres undefined),inconclusive: 46.6%
21,Cc1ccc(S(=O)(=O)N[C@H]2CC[C@@H](CCNS(=O)(=O)Cc3ccccc3)O[C@@H]2CO)cc1,inconclusive: 45.1%
22,COc1ccccc1NC(=O)CSc1nncn1-c1ccccc1,inactive: 5.02%
23,COCCNC(=O)c1cc(C(=O)CC(C)C)c[nH]1,inconclusive: 45.7%
24,COC(=O)C[C@@H]1CC[C@@H](NS(=O)(=O)c2ccc(OC)cc2)[C@H](CO)O1,inconclusive: 39.4%
25,CC1=C(C#N)c2nc(N)c(C#N)c(C)c2/C1=C\c1ccc(OCC(=O)O)c(Cl)c1,inactive: -8.95%
26,COc1ccc(/C=N/Nc2nc(C(=O)O)cs2)cc1,inactive: 4.83%
27,O=C(COC(=O)c1cccc([N+](=O)[O-])c1)c1ccc(OCc2ccccc2)cc1,inconclusive: 41.6%

row,SMILES,inhibition
1,C/C(=N/NC(=O)CNC(=O)c1ccccn1)c1ccc([N+](=O)[O-])cc1,inconclusive: 42.6%
2,COC(=O)c1cc(NC(=S)Nc2cc(Cl)cc(Cl)c2)cc(C(=O)OC)c1,inconclusive: 26.6%
3,O=C(Nc1sc2c(c1C(=O)O)CCC2)c1ccccc1F,inconclusive: 56.2%
4,Cc1nn(C)c(C)c1S(=O)(=O)N1CCC(C(=O)NC2CCCCCC2)CC1,inconclusive: 36.1%
5,CN1C(=O)C2(NC(=O)c3ccccc3N2C)c2ccccc21 (centres undefined),inconclusive: 41.6%
6,Cn1c(Cl)cnc1C(O)c1ccccc1 (centres undefined),inconclusive: 46.7%
7,COc1cccc(NC(=O)NCCc2ccc(Cl)cc2)c1,inconclusive: 43.8%
8,COCC#Cc1cnc2c(c1)C(=O)N([C@H](C)CO)C[C@@H](C)[C@H](CN(C)C(=O)NC1CCCC1)O2,active: 59.3%
9,CN(CCO)S(=O)(=O)c1ccc2c(c1)C(=NO)c1cc(S(=O)(=O)N(C)CCO)ccc1-2,inconclusive: 35%
10,COc1ccc(C2Nc3ccccc3C(=O)N2c2ccccc2)cc1COc1ccccn1 (centres undefined),inactive: 6.74%
11,COCCNC(=O)C[C@@H]1C[C@H]2c3cc(NC(=O)NC4CCCC4)ccc3O[C@H]2[C@@H](CO)O1,active: 81.7%
12,Cc1cc(C)nc(NC(=O)c2ccc(Cl)cc2)n1,inconclusive: 43.2%
13,CC(C)(C)c1ccc(C(=O)N2CCCC2)s1,inconclusive: 49.8%
14,O=C1C(=Cc2ccccn2)CCc2ccccc21,inactive: 0.958%
15,COc1ccc(CN(C)C[C@@H]2Oc3ccc(NC(=O)C4CC4)cc3C(=O)N([C@H](C)CO)C[C@H]2C)cc1,inconclusive: 53.9%
16,COc1ccc(C2OC(=O)Cc3cc(OC)c(OC)cc32)cc1 (centres undefined),inconclusive: 41.3%
17,Nc1cc2c(cc1O)CCCC2,inconclusive: 43.2%
18,COc1cc(/C=N\Nc2nc(-c3cccs3)c(NC(C)=O)s2)ccc1O,inconclusive: 35.8%
19,O=C([C@H](Cc1ccc(O)cc1)n1cc(CCO)nn1)N1CCNCC1,inconclusive: 37%
20,CN(Cc1nc(-c2cccs2)no1)CC(O)c1ccccc1 (centres undefined),inconclusive: 25.6%
21,COc1cc2c(cc1NC(=O)COC(=O)[C@@H](NC(=O)c1ccccc1F)C(C)C)oc1ccccc12,inconclusive: 45.9%
22,COc1cccc(-n2c(SCC(=O)NCC3CCCO3)nc3c([nH]c4ccccc43)c2=O)c1 (centres undefined),inactive: -3.5%
23,CC1(C)Cc2c(sc3[nH]c(=S)n(Cc4ccccc4)c(=O)c23)CO1,inconclusive: 32.3%
24,CCN(CC)S(=O)(=O)c1ccc(C)c(NC(=S)Nc2cccc(S(=O)(=O)N3CCCCCC3)c2)c1,inconclusive: 43.9%
25,CCN(CC)CCNC(=S)Nc1ccc2nc(N3CCCC3)cc(C)c2c1,inactive: -5.27%
26,O=C(C[C@@H]1CC[C@H]2[C@@H](COC[C@H](O)CN2Cc2nccs2)O1)NCc1ccc(-c2ccccc2)cc1,inactive: 0.114%
27,CCC(=O)N1[C@@H]2c3ccc(/C=C/c4ccccc4)c(=O)n3C[C@H]1[C@H](CO)[C@H]2C(=O)N(C)C,inactive: 3.14%

row,SMILES,inhibition
1,COc1ccc(N2C(=O)CC(C#N)=C2N)cc1,inconclusive: 39.7%
2,Cc1ccc(C2(c3noc(CN(C)CC4COCCO4)n3)CCCC2)cc1 (centres undefined),inconclusive: 29.3%
3,Cc1nc(COc2cccc(Cl)c2)sc1C(=O)/C=C/N(C)C,inconclusive: 26.7%
4,C[C@@H]1CN([C@H](C)CO)C(=O)c2cc(NC(=O)Nc3ccc(C(F)(F)F)cc3)ccc2O[C@@H]1CN(C)S(=O)(=O)c1ccc(F)cc1,active: 29.5%
5,CC(=O)Nc1ccc(-c2ccnc3c2CC(C)(C(=O)NCc2ccc(N4CCN(C)CC4)cc2)O3)cc1 (centres undefined),inconclusive: 35.6%
6,COc1ccc(N2CCN(C(=O)COC(=O)c3ccc(CSC)o3)CC2)cc1,inconclusive: 27.4%
7,COc1ccc(N2Cc3ccccc3C2=NC(=O)c2cccc([N+](=O)[O-])c2)cc1,inconclusive: 28.9%
8,CC=Cc1ccc2n(c1=O)C[C@H]1[C@H](CO)[C@@H](C(=O)NCCC)N(C(=O)C3CCOCC3)[C@@H]21 (mixture of isomers),inconclusive: 40.9%
9,Cc1ccc(S(=O)(=O)Nc2ccc3c(c2)CC(=O)N([C@@H](C)CO)C[C@H](C)[C@@H](CN(C)S(C)(=O)=O)O3)cc1,inactive: -6.6%
10,COc1ccc(-c2cnc3c(c2)C(=O)N([C@H](C)CO)C[C@H](C)[C@@H](CN(C)Cc2ccccc2)O3)cc1,inactive: 3.84%
11,Cc1ccc(COC(=O)NCc2cccnc2)cc1,inconclusive: 32.5%
12,CC1CC(=O)Nc2ccccc2N1C(=O)Nc1ccccc1 (centres undefined),inconclusive: 33%
13,CCn1c(C(C)NC(=O)c2cccs2)nc2ccccc21 (centres undefined),inconclusive: 50.1%
14,CCN(CC)c1ccc(S(=O)(=O)Nc2cc(Cl)ccc2Cl)cc1NC(=S)NC(=O)C1CCCC1,inconclusive: 59.1%
15,Cc1cccn2cc(-c3cc4ccccc4oc3=O)nc12,inactive: 0.033%
16,CO[C@H]1CN(C)C(=O)c2cc(NC(=O)CC(F)(F)F)ccc2OC[C@H](C)N(C(C)=O)C[C@H]1C,inactive: 11.3%
17,Cn1nnnc1SCC(=O)N1CCN(C(=O)c2ccco2)CC1,inconclusive: 41.3%
18,COc1ccc(NC(=O)N(C)C[C@H]2OCCCC[C@@H](C)Oc3ccc(NC(=O)Nc4ccc(F)cc4)cc3C(=O)N([C@H](C)CO)C[C@H]2C)cc1,inactive: -3.33%
19,Cc1ccc(Nc2nc(-c3ccccc3)c(CC(=O)O)s2)cc1,inconclusive: 38.7%
20,Cc1cc(Cl)nc(Cl)c1C(=O)NC(=O)NCCC(C)C,inconclusive: 39.4%
21,Cc1noc(C)c1NC(=O)Nc1cccc2c1O[C@H](CN(C)S(=O)(=O)c1ccc(Cl)cc1)[C@@H](C)CN([C@H](C)CO)C2=O,active: 26%
22,O=C(C[C@H]1C[C@H]2c3cc(NC(=O)C4CCC4)ccc3O[C@H]2[C@@H](CO)O1)NCc1ccccc1,inactive: 3.4%
23,O=C(Nc1ccccc1C(=O)N/N=C/c1ccncc1)c1ccccc1,inactive: -4.08%
24,CN(C)C(=O)C[C@@H]1C[C@@H]2c3cc(NS(C)(=O)=O)ccc3O[C@@H]2[C@H](CO)O1,active: 77.1%
25,CCOc1ccccc1Nc1ncnc2ccc(Br)cc12,inactive: -1.3%
